± gives the standard deviation of the averaged measurements. Whole data set: some 33,000 sequences, median “E-score (dimensionless, -0.5 to 0.5)” near -0.049, cut for the highest 2% near 0.37. The list shows a part of the results.
Tested on: T1, PmTbr T-box DNA-binding domain (GST fusion)
T1 sequence: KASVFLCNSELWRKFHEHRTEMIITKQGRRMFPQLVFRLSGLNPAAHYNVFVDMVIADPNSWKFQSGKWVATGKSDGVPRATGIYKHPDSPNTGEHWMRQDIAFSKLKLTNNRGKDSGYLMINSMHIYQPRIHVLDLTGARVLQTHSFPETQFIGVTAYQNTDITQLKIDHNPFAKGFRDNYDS
Assay: PBM E-score of 8-mer (E-score (dimensionless, -0.5 to 0.5)); Tbr is Tbrain of the sea star Patiria miniata (Pm) or the sea urchin Strongylocentrotus purpuratus (Sp); higher = stronger binding preference; most listed sequences are background and not binding sites
Settings: the construct has about 5 more residues each side
Description: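 Universal protein-binding microarray (Agilent AMADID 016060, 60-bp probes with a 35-bp variable region) incubated with 200 nM GST-fused Patiria miniata Tbr T-box DNA-binding domain (residues 272-466) in PBS pH 7.5. Scored for every ungapped 8-mer (given with its reverse complement) by the Universal PBM Analysis Suite as E-score (modified Wilcoxon-Mann-Whitney enrichment, range -0.5 to 0.5; >0.45 counts as bound) and Z-score of median probe intensity. Two replicate arrays (datasets 1 and 2).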
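Further: 200 nM protein in PBS on universal arrays averaged over duplicate arrays.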

Row | Sequence | PBM E-score of 8-mer
1 | ATTTCTGC | -0.142 ± 0.0022
2 | CTTAAGCA | -0.0559 ± 0.013
3 | CCACGGGG | 0.125 ± 0.055
4 | CCGCCAAC | 0.155 ± 0.014
5 | GTGAGAAA | 0.458 ± 0.012
6 | AAAGAGTT | 0.0877 ± 0.014
7 | AAACAACC | -0.0664 ± 0.015
8 | GTTAGAAA | 0.109 ± 0.022
9 | CCCTTTCG | -0.0314 ± 0.0052
10 | AACTTCAC | 0.0623 ± 0.061
11 | AGGCTAGC | -0.0407 ± 0.028
12 | AGTTCTAG | -0.0278 ± 0.041
13 | ATGTAACG | -0.0238 ± 0.026
14 | CAGCCAAG | -0.0783 ± 0.084
15 | AACTGGGG | -0.216 ± 0.052
16 | ATACTACC | -0.127 ± 0.11
17 | AAAGACAC | 0.159 ± 0.036
18 | CGTCAGCC | -0.117 ± 0.095
19 | CGAACAAC | 0.16 ± 0.031
20 | ATAATACA | -0.0598 ± 0.013
21 | ATAGTCCG | -0.131 ± 0.0027
22 | GATGGGCC | -0.16 ± 0.047

Row | Sequence | PBM E-score of 8-mer
23 | GATGAACC | -0.238 ± 0.028
24 | TAAGAGAA | -0.235 ± 0.051
25 | TGAACACA | 0.118 ± 0.027
26 | GATGGCTA | -0.169 ± 0.032
27 | AGTCATAG | 0.0344 ± 0.022
28 | ATAGGTAC | -0.105 ± 0.041
29 | CTTTCGAA | 0.0767 ± 0.037
30 | AGACCATG | -0.132 ± 0.0097
31 | ACCTAGGG | 0.169 ± 0.0037
32 | CTCTACTC | -0.134 ± 0.051
33 | AAACTAGA | -0.161 ± 0.057
34 | GTTAGAGA | 0.0437 ± 0.071
35 | AATTCCCA | -0.13 ± 0.041
36 | AGAACTTA | -0.0909 ± 0.074
37 | CTGCTAAA | 0.21 ± 0.071
38 | CGTGGCGC | 0.145 ± 0.023
39 | GCGGGACA | -0.105 ± 0.054
40 | AGTTACAT | 0.00137 ± 0.016
41 | ATATCACA | 0.368 ± 0.0087
42 | AAACGTAA | -0.0985 ± 0.035
43 | AGATGGTA | 0.00457 ± 0.0074
44 | CACGGGTA | 0.00409 ± 0.011

Row | Sequence | PBM E-score of 8-mer
45 | CAAGGGAC | -0.0692 ± 0.03
46 | AGCGTCTG | -0.0652 ± 0.022
47 | TATTCAGA | -0.339 ± 0.0077
48 | ATCGTTCC | -0.105 ± 0.018
49 | ACCCTTAG | 0.013 ± 0.091
50 | CAGTAAGG | -0.0221 ± 0.052
51 | CTTAGCGC | 0.284 ± 0.0041
52 | AGAACGAC | -0.0459 ± 0.035
53 | AAACGAAT | 0.0595 ± 0.0096
54 | GGACCGCC | -0.18 ± 0.035
55 | ACCGTGCT | 0.0549 ± 0.059
56 | CAGGTATG | 0.0462 ± 0.043
57 | AGTATTGG | -0.0858 ± 0.022
58 | CGCTCGAC | 0.0137 ± 0.026
59 | TCGGATCA | -0.0895 ± 0.043
60 | CTCCTGAC | -0.00639 ± 0.074
61 | TACCAATA | -0.0615 ± 0.078
62 | AAAAAGCA | 0.158 ± 0.084
63 | GAGTTCAC | 0.263 ± 0.035
64 | AAAGGATG | -0.167 ± 0.054
65 | CCACATAG | 0.00626 ± 0.033
66 | AAAGTCAC | 0.0946 ± 0.023

Row | Sequence | PBM E-score of 8-mer
67 | CCCCCTAA | -0.241 ± 0.019
68 | TCACTACA | 0.11 ± 0.0097
69 | AGTCGGGC | -0.0257 ± 0.094
70 | ACTGCTCC | -0.0798 ± 0.014
71 | GGAGCTGA | -0.0874 ± 0.0083
72 | AGGTTCAG | -0.0171 ± 0.05
73 | CTTCCTCC | -0.2165 ± 0.00028
74 | CTTAAAAA | 0.037 ± 0.049
75 | AACGCGTG | 0.306 ± 0.01
76 | CTAAGCTA | -0.249 ± 0.081
77 | AAGTCACC | -0.0203 ± 0.083
78 | AGAATTAT | -0.111 ± 0.053
79 | ACGTCGGA | 0.0795 ± 0.014
80 | ACAGCTGA | 0.0767 ± 0.025
81 | CTGTGCCA | 0.0393 ± 0.039
82 | CGCTCCCG | -0.0981 ± 0.017
83 | CATGGACG | -0.119 ± 0.07
84 | CGCGCCGC | 0.246 ± 0.001
85 | ACCAACCC | -0.164 ± 0.011
86 | CTGAACAA | -0.0764 ± 0.044

Reference: the supplement of paper PMC4166925
